Results taken from paper PMC12136788.
The list shows a part of the results.

T1: UNK ZnF1-3 (human, UniProt Q9C0B0 31-174)
T1 sequence: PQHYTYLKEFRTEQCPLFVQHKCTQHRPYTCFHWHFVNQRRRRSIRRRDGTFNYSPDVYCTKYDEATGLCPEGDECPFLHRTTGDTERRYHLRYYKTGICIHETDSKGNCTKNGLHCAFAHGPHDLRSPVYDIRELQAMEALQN

B1: chr13:107726893:107726894:-_ENSMUSG00000042590_ENSMUST00000080856|mus_hu|FALSE|FALSE (ssRNA)
RNA: GGGAGUUCUACAGUCCGACGAUCCCCGCUCCCACUUCCCAACACGAAGUGGCGUCGGUUGGUCCCUCUCCCCACGCUGCCAGACCCCACGCCGCCGCCUACUGAUGCCGAAAGCGGCUUCUAGGAACACGCCAUGUUUGGCGUCAACAGAGGAUUGAGCAUCA
B2: chr17:17163782:17163783:-_ENSG00000141030_ENST00000268717|hu_mus|FALSE|FALSE (ssRNA)
RNA: GGGAGUUCUACAGUCCGACGAUCCAGCUCAGACGGGUUGUUGGUUGAAUAAACUUGUGCUAACUCAUGGUAAGCAUUGCUGAGAGGCUUAAUAAAUCUACCCACUAUUUGAGAGGUGUAUUUAGGCAGCUGUUGUACUUUGCCCAACAGAGGAUUGAGCAUCA
B3: chr15:51674161:51674162:-_ENSMUSG00000022312_ENSMUST00000022925|mus_mus|FALSE|FALSE (ssRNA)
RNA: GGGAGUUCUACAGUCCGACGAUCCUGAACAACCUCAGUGCCUUGUCCUUCUUCUUGAUAAUGUUUGAUUAUCUUUAAUACUACCAGGCCGUCGAUCUGCACCUGCUUCACGGCCGAAUCUCCGGAGCCGCCUUUGCCUUUGCCCAACAGAGGAUUGAGCAUCA
B4: chr2:153583694:153583695:+_ENSMUSG00000027479_ENSMUST00000028981|perfect_dup|FALSE|FALSE (ssRNA)
RNA: GGGAGUUCUACAGUCCGACGAUCGAAAAACUUCUUGAACCACUGAACGAAUUCAAAAUUGUCCUGAAACUUUCCUUUUACUAAUUUGUCCACAGGAAUUAUUUUGUCAACACCCAUUCUCUUAAAACCUGCUUGUAGUAUUUUCAACAGAGGAUUGAGCAUCA
B5: chr5:72858467:72858468:-_ENSG00000164331_ENST00000296785|hu_mus|motif|central (ssRNA)
RNA: GGGAGUUCUACAGUCCGACGAUCUUUAAAUAAGACAGAUGCCACCUCCAGGUCAGAGUUAACUUGAUCUUGAAUAUUUUUACGGUCCUCUUCAUUUAAGGACUUCACGAAUCGAGAACACACGUUCAUAUCAAAUCGGUUUGGCAACAGAGGAUUGAGCAUCA
B6: chrX:7458662:7458663:+_ENSMUSG00000031155_ENSMUST00000033495|mus_hu|motif|central (ssRNA)
RNA: GGGAGUUCUACAGUCCGACGAUCAAGCAGGGCACCAGAACCAAAAUCAAUGAGUUUGGCACAGCCACGGCGUAGGUCGGUCAGGAUGUUCUCAUCCUUGAUGUCACGAUGGACAACUCCACGGGAAUGGCAGUGCUGGAUGGCCAACAGAGGAUUGAGCAUCA
B7: chr1:26449037:26449038:+_ENSG00000175087_ENST00000374271|hu_mus|FALSE|FALSE (ssRNA)
RNA: GGGAGUUCUACAGUCCGACGAUCAUGCUUGCAAGCAGUAGGUCACGUCUCCCAGCUGCUGUCUUUAAAUGCAAUUUGGACUAAUCUGAGUUCUAGUUCAAAAGCAUCAGGGCGAUCCUGAGGGUUUGCGGCCAGCAUUUCCUUCAACAGAGGAUUGAGCAUCA
B8: 21640432_21658266_972_3pUTR_ENSMUSG00000042453_ENSMUST00000161356|mouse|control|control (ssRNA)
RNA: GGGAGUUCUACAGUCCGACGAUCCGGCUCACAGAAGGUGACAGCAUUGCCAUGCAUGAUGGUGCCACACUGCUCUCCCAUCUCACAGUUGCUGCAUUCAACCCAUAUGUUGGGGUUCAAUUCCAGUUGCUGGUAGGAGUCAAACAACAGAGGAUUGAGCAUCA
B9: chr1:39494447:39494448:+_ENSG00000168653_ENST00000372967|hu_mus|hu_hu_hu_mus_False|8_38 (ssRNA)
RNA: GGGAGUUCUACAGUCCGACGAUCGCACCGAGCGGCGUUCUUAUAGGGCUGUUCUGCGCUUAGGAACAUAAAGUGCCGGUCCAGGCUGAUGCCCAGCCUUUUCUGGAUGUCAAGGAAAGGCAUGGCUGAUGCUCGUGCUUGUCACAACAGAGGAUUGAGCAUCA
B10: chr8:104061119:104061120:+_ENSG00000155097_ENST00000518738|hu_hu|FALSE|FALSE (ssRNA)
RNA: GGGAGUUCUACAGUCCGACGAUCCAGAUUCUCUUGAACUUUGUCUUUGCUAUCUUCCAAUACAUCAGCCAUGUAUUGAGCUACUUUCUUAACCACUCCUUCUACAAAUGCAUCCAGUUUAGCCAGUUCAUCUGACAAGCCAACCAACAGAGGAUUGAGCAUCA
B11: chr5:71490377:71490378:+_ENSG00000131711_ENST00000296755|hu_mus|FALSE|FALSE (ssRNA)
RNA: GGGAGUUCUACAGUCCGACGAUCGCCCACUCCCAUCUUCUGGAACAGGAUGACAGGCUCAAUGGUAUUGCCUACACUUCUAAAUAGAGGCUCUGGUUUCAUGGACAGUUUGUUUAAGUACUGGAGAGUGAAGCAUGCUUCUUCCAACAGAGGAUUGAGCAUCA
B12: 21786304_21786424_504_CDS_ENSMUSG00000028248_ENSMUST00000108229|mouse|control|control (ssRNA)
RNA: GGGAGUUCUACAGUCCGACGAUCUGCAAAGUUAUCAGGUGGUCCACCAAAGUUGUGAUUGUUCUGGUUAAAUAUAUGCCUGUUGUCAGGGGCAAACUCCCCACUGUCCUGACUGUUGCUGUCUUCAGAAGGAGGAACAAUGUCCAACAGAGGAUUGAGCAUCA
B13: chr2:216981417:216981418:+_ENSG00000079246_ENST00000392132|hu_hu|hu_hu_hu_mus_True|28_108 (ssRNA)
RNA: GGGAGUUCUACAGUCCGACGAUCCUGAUACUGAUCCUUGCCAGCAAGGGCAUUAUCAGUGCCAUCUGUGCCAUAGAGGACUAACGCAAUCUCAUCUUUGCUCUCCGCAAACACCUGUCGUUGGACAAACAUAGUCAUCACUUUCAACAGAGGAUUGAGCAUCA
B14: chr1:163117127:163117128:-_ENSG00000143248_ENST00000313961|hu_mus|hu_hu_hu_mus_False|38_98 (ssRNA)
RNA: GGGAGUUCUACAGUCCGACGAUCUGCUACAAAGGAUGGAGGAAAUAUCACAGGGCAACUUUUGGAAGCCUGACCAGAUGACUACUUGAUUAGCUCCUGAUAAAACUCAGAGCGCACAAAGCGGGGCAGAGAAUCCUUCUCCAUCAACAGAGGAUUGAGCAUCA

What follows are binders tested against T1, UNK ZnF1-3 (assay: nsRBNS (natural sequence RNA bind-n-seq); RBNS binding buffer (assumed for nsRBNS): 25 mM Tris pH 7.5, 150 mM KCl, 3 mM MgCl2, 0.01% Triton X-100, 500 ug/ml BSA, 20 U/ml SUPERase-In, 4 C; UNK is unkempt and MSI1 is Musashi-1; names of the RNAs are library labels; protein concentration not given here; high values mean tight binding).
B1 showed a binding signal of 0.849 enrichment R. Work on B2 yielded a binding signal of 0.841 enrichment R. Binder B3 has a binding signal of 0.502 enrichment R. B4 was tested, and the binding signal was 0.847 enrichment R. With B5 the binding signal was 1.08 enrichment R. B6 was tested, and the binding signal was 1.25 enrichment R. B7 gave a binding signal of 0.754 enrichment R. B8 was tested, and the binding signal was 0.923 enrichment R. Binder B9 has a binding signal of 0.74 enrichment R. Work on B10 yielded a binding signal of 0.85 enrichment R. In the case of B11, the binding signal is reported as 0.941 enrichment R. Work on B12 yielded a binding signal of 0.97 enrichment R. With B13 the binding signal was 0.744 enrichment R. Binder B14 has a binding signal of 1.55 enrichment R.
